# The whole screen tested about 52,000 compounds, of which about 4,300 (8.3%) were called active. Rule as the data show it: active = survival mostly below about 52% (no sharp cut-off); inactive = mostly above about 56%. The list shows a part of the results.
# Tested on: DeltatarO mutant
# Experiment: growth inhibition of S. aureus wild type versus tarO mutant, primary screen, teichoic acid synthesis inhibitors, RN4220, OD600 (AID 463173)
# Conditions: OD600, 18 h, hits give low values, screened at 18.75 µg/mL (by protocol)
row,SMILES,survival
1,Cc1ccccc1NC(=O)CC1COc2ccccc2O1 (stereo unspecified),inactive: 78%
2,Cc1ccc(N(CC(=O)Nc2ccc(Br)cc2)S(=O)(=O)c2cccs2)cc1,inactive: 81%
3,CCc1ccccc1NC(=O)c1ccc2nc(C(C)C)oc2c1,inactive: 73%
4,O=C(Nc1nnc2n1CCS2)c1ccccc1C(F)(F)F,inactive: 93%
5,CC(C)CCNC(=O)CCC(=O)NNc1nc2ccccc2c2nc(-c3ccccc3)nn12,inactive: 123%
6,O=c1c(Cl)c(NCCO)ncn1-c1ccccc1,inactive: 68%
7,COc1cc(OC)cc(C(=O)N2CC(=O)Nc3ccc(Cl)cc3C2c2ccccc2)c1 (stereo unspecified),inactive: 74%
8,CC(=O)ON1C(c2ccccc2)[N+]([O-])=C(c2ccccc2)C1(C)C (stereo unspecified),inactive: 67%
9,CCOc1ccc(CNS(=O)(=O)c2cc3c(cc2C)NC(=O)CO3)cc1,inactive: 92%
10,CC(=O)c1ccc(N2CCN(C(=O)CCCCn3c(=O)[nH]c4ccsc4c3=O)CC2)cc1,inactive: 77%
11,O=C(Nc1cccc(C(F)(F)F)c1)c1cc(-c2ccc3c(c2)OCCO3)on1,inactive: 116%
12,CCSc1nnc(NC(=O)c2cc(=O)c3cc(C)c(C)cc3o2)s1,active: 44%
13,CCOC(=O)C1=C(c2ccccc2)OC(N)=C(C#N)C1c1ccncc1 (stereo unspecified),inactive: 87%
14,CCc1cnc2c(c1SCC(=O)c1ccc(Cl)cc1)c(=O)n(C)c(=O)n2C,inactive: 96%
15,CCOC(=O)c1c(-c2ccc(OC)cc2)oc2ccc(OCc3ccc(Br)cc3)cc12,inactive: 63%
16,CSc1nc(C)c2cc(C)ccc2n1,inactive: 89%
17,O=C(NCc1ccccc1)C(=O)NCC(c1cccs1)S(=O)(=O)c1ccccc1 (stereo unspecified),active: 52%
18,COc1ccc2cc3cc(C(=O)NCc4ccccc4OC)oc3nc2c1,inactive: 80%
19,CCC(C)(C)n1nnnc1C(c1ccccc1OC)N1CCN(C(=O)c2ccco2)CC1 (stereo unspecified),inactive: 87%
20,COc1ccc(C2=C(C)C(N3CCC(C(=O)Nc4ccc(F)cc4C)CC3)=NS2(=O)=O)cc1,inactive: 83%
21,O=C1CC(N2CCCC2)C(=O)N1c1ccccc1 (stereo unspecified),inactive: 96%
22,O=C(Nc1ccc(Cl)c(C(F)(F)F)c1)C(Cc1ccccc1)NS(=O)(=O)c1ccc(Br)s1 (stereo unspecified),inactive: 82%
23,Brc1cccc(-c2cnn3c(-c4ccccc4)cc(-c4ccccc4)nc23)c1,inactive: 74%
24,CCN(CC)C(=O)CN1C(=O)/C(=C/c2ccccc2)SC1=S,inactive: 78%
25,CCOc1ccc(NC(=O)C(=O)NCc2ccco2)cc1,inactive: 61%
26,COc1cccc(C(=O)NCC(c2ccc3c(c2)OCO3)N2CCOCC2)c1 (stereo unspecified),inactive: 112%

# — PubChem BioAssay AID463173 (ICCB-Longwood Screening Facility, Harvard Medical School, 2010)
